Assay results reported in article PMC3997423, “Identification and HLA-Tetramer-Validation of Human CD4^+ and CD8^+ T Cell Responses against HCMV Proteins IE1 and IE2” (PLoS ONE, 2014).

Molecular target: T1, HLA-C*07:02 (Homo sapiens, UniProt P10321)
T1 construct: made in house
Assay: Peptide-HLA class I stability
Type: binding
Conditions: dissociation of ^125I β2m, scintillation proximity assay, 37°C, read 24 h

Q: CRVLCCYVL [IE1_309–317] was tested. Which “Stability (T½; h)” value did it give?
A: The value was 12.6 h.
